PubChem BioAssay AID504832 (National Center for Advancing Translational Sciences (NCATS), 2011)
In all, about 310,000 compounds went through this assay and about 18,000 (5.8%) were called active. Inconclusive means that the source gave no clear call. Such entries were picked first, then a sample of the others. Calls follow the shape of the dose curve; as a rule, active = well fitted inhibition curve with a large enough effect; inconclusive = small, poorly fitted or top-dose-only effect, or another doubt; inactive = no such curve, though single readings can be large or run the other way. Potencies of inconclusive entries are left out as doubtful fits.

assay: Primary qHTS for delayed death inhibitors of the malarial parasite plastid, 48 hour incubation; details: P. falciparum luciferase growth in erythrocytes; series mostly up to 28.7 µM
Outline: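 Read-out is firefly luciferase luminescence from an integrated reporter in P. falciparum, so falling signal marks reduced parasite growth. Infected erythrocytes were at 2% hematocrit and 0.1% parasitemia (final) in Albumax-supplemented RPMI 1640.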
Potency is read from the fitted curve at half-maximal effect; tags tell the direction and shape of the fitted curve.

Compound	Potency
Cc1cc(OCC(O)CN2C(C)CCCC2C)ccc1C(C)C (stereo unspecified)	active: 9.28 µM
O=C(NCc1cccnc1)c1cccc(S(=O)(=O)N2CCCC2)c1	inactive
CC(NC(=S)Nc1ccccc1Cl)C(c1cccs1)N1CCCC1 (stereo unspecified)	inconclusive [inhibitor, single point]
Cc1ccn2cc(C(=O)NCc3ccco3)nc2c1	inactive
O=C(N/N=C/c1ccc([N+](=O)[O-])cc1)c1ccc(COc2ccccc2-c2ccccc2)cc1	inconclusive [inhibitor, full curve, poor fit]
CCOC(=O)c1nc(NCc2ccccc2)sc1C	inactive
Cc1ccc(S(=O)(=O)Nc2ccc(Br)cc2/C=N/n2cnnc2)cc1	inactive
Cc1cc(NC(=O)CCc2ccc(S(=O)(=O)N3CCOCC3)cc2)n(-c2ccccc2)n1	active: 13.1 µM
CCOC(=O)c1cc(-c2ccc(OC)cc2F)nc2c1c(C)nn2CCC#N	inconclusive [inhibitor, single point]
C=CCN(C(=O)CCC(=O)Nc1cc(C)on1)C(C(=O)NC1CCCC1)c1ccc(Cl)cc1 (stereo unspecified)	inconclusive [inhibitor, partial curve, poor fit]
Clc1cccc(Cl)c1-c1noc(-c2ccno2)n1	inconclusive [inhibitor, single point]
CC1CCc2c(sc(/N=C/c3ccco3)c2C(N)=O)C1 (stereo unspecified)	inactive
O=C(CN1CCN(CC(=O)Nc2ccccc2Cl)CC1)NCC1(N2CCOCC2)CCCCC1	active: 10.4 µM
CNc1c(NC(=O)c2ccc3c(c2)OCO3)c(=O)oc2ccccc12	inactive
Cc1nc(N2CCCCC2)c2c(C)c(C(=O)Nc3ccc4c(c3)OCCO4)sc2n1	inconclusive [inhibitor, partial curve]
N=C(N)SCc1ccc(Cl)cc1Cl	inconclusive [inhibitor, single point]
COc1ccc(C2Nc3ccccc3C(=O)N2Cc2ccccc2)cc1CSc1ccccn1 (stereo unspecified)	inconclusive [inhibitor, full curve]
COc1ccc(/C=C(\C#N)C(=O)NCc2ccccc2)cc1O	inconclusive [inhibitor, single point]
O=C(Nc1cc(S(=O)(=O)Nc2ccc(Cl)cc2)ccc1N1CCCCC1)c1ccc(F)cc1	inconclusive [inhibitor, partial curve]
Brc1ccc(NC(c2ccccc2)c2ccncc2)cc1 (stereo unspecified)	inactive
CCOC(=O)c1[nH]c2ccccc2c1NC(=O)c1ccc(S(=O)(=O)N(C)C)cc1	active: 10.4 µM
CN(C)S(=O)(=O)c1cccc(NC(=O)c2cccc(S(=O)(=O)N3CCCCCC3)c2)c1	active: 13.1 µM
O=C(CSc1nc2ccccc2c(=O)[nH]1)Nc1ccc(N2CCOCC2)c(Cl)c1	inactive

Compound	Potency
CC(=O)Nc1cc[n+](C(C)C(=O)c2ccc(Cl)cc2)cc1 (stereo unspecified)	inconclusive [inhibitor, partial curve, poor fit]
CCOC(=O)c1c(C)nc2ccccn12	inactive
CCOc1cc(-c2cc(-c3ccc(C)o3)nc(N)c2C#N)ccc1O	inconclusive [inhibitor, partial curve]
O=S(Cc1ccc(Br)cc1)Cc1nnc(SCc2ccc(Cl)cc2)n1-c1ccccc1 (stereo unspecified)	inconclusive [inhibitor, partial curve, poor fit]
Cc1c(Cl)cccc1NC(=S)N(CCCN1CCOCC1)Cc1ccco1	inconclusive [inhibitor, partial curve, poor fit]
CC(C)[C@H](NC(=O)c1cc2cc(Cl)ccc2n1C)C(=O)N[C@@H](C(=O)O)c1ccccc1	inactive
COc1ccc(NC(=O)COc2ccccc2C(=O)NCC(c2ccccc2)N(C)C)cc1Cl (stereo unspecified)	inconclusive [inhibitor, single point]
CC(=O)c1c(C)[nH]c(C(=O)OCC(=O)c2c[nH]c3ccccc23)c1C	inconclusive [inhibitor, single point]
CCCN1C(=O)c2ccccc2NC1c1ccc(OC)cc1O (stereo unspecified)	inconclusive [inhibitor, single point]
Cc1ccc(S(=O)(=O)N2CCN(C(=O)c3ccccc3Cc3ccccc3)CC2)c(C)c1	inconclusive [inhibitor, single point]
COc1ccc(NC(=O)CC2C(=O)N(c3ccc(OC)cc3)C(=O)N2Cc2ccc(OC)c(OC)c2)cc1 (stereo unspecified)	inconclusive [inhibitor, partial curve, poor fit]
c1ccc(Cn2c(Sc3nnnn3-c3ccccc3)nnc2-c2ccccc2)cc1	active: 1.85 µM
Cc1ncc(CO)c(/C=N/NC(=S)Nc2ccc(Cl)c(Cl)c2)c1O	inconclusive [inhibitor, single point]
CC(C)C[C@H](NC(=O)c1nc[nH]c1C(=O)NC(c1ccccc1)c1ccccc1)C(=O)OC(C)(C)C	inconclusive [inhibitor, partial curve]
O=C(Nc1ccccc1Cl)C1CCCN(c2ncnc3c2nc2n3CCCCC2)C1 (stereo unspecified)	inconclusive [inhibitor, single point]
O=C(Nc1nc(-c2ccccc2)nc2ccccc12)c1ccc(F)cc1	inactive
Oc1ccccc1/C=N/NC(=S)NC1CC2CC1C1C=CCC21 (stereo unspecified)	active: 3.29 µM
CC(=O)O/N=C/c1c(N2CCOCC2)n(C)c2ccccc12	active: 3.7 µM
O=C(c1ccccc1-c1nc(-c2ccccc2)no1)N1CCOCC1	inconclusive [inhibitor, partial curve, poor fit]
CC(O)CNCCCOc1ccc(Cl)cc1C(C)(C)C (stereo unspecified)	inconclusive [inhibitor, partial curve, poor fit]
COc1cccc(N2CC(C(=O)NC3CCCCC3)CC2=O)c1 (stereo unspecified)	inactive
CCC(CC)c1nc2ccccc2c(=O)[nH]1	inactive
CC/C(C)=N/NC(=O)c1[nH]c2ccc(C)cc2c1-c1ccccc1	inconclusive [inhibitor, single point]
